Among the data in PubChem BioAssay AID463173 (ICCB-Longwood Screening Facility, Harvard Medical School, 2010) are survival values, retold here.

Molecules are shown by their SMILES. Hit rate of the full screen: of about 52,000 compounds, about 1,700 (3.3%) were called active. No stated cut-off is given here; in the data, active means survival mostly below about 52% (no sharp cut-off); inactive means mostly above about 56%. The list shows a part of the results.

This experiment deals with Wild type. Nature of the experiment: growth inhibition of S. aureus wild type versus tarO mutant, primary screen, teichoic acid synthesis inhibitors, RN4220, OD600 (AID 463173). To be noted: S. aureus RN4220 wild type/DeltatarO growth, OD600, 18 h, active compounds read low, screened at 18.75 µg/mL (by protocol).
For the compound `Cc1cccc(C)c1OCc1nc2c3cnn(-c4ccccc4Br)c3ncn2n1`, the survival is inactive: 92%.

Consider `O=C(NC1CCCCC1)c1cc(Nc2ccccc2)nc2ccccc12`, for which the survival was inactive: 75%.

On to `COC(=O)c1ccc(NC(=O)CCNS(=O)(=O)c2cccc3nsnc23)cc1`, for which the survival is inactive: 62%.

With `CCOC(=O)CC(NC(=O)c1cc2c(=O)n3cccc(C)c3nc2s1)c1ccc(OCC(C)C)c(OC)c1` (stereo not given), the survival was inactive: 77%.

`COc1ccc(CCN2C(=O)c3[nH]nc(-c4ccccc4O)c3C2c2ccc(O)c(OC)c2)cc1` (stereo not given): the survival was inactive: 54%.

As to `COc1ccc(-c2c(C)nn3c(-c4ccccc4)cc(-c4ccccc4)nc23)cc1OC`, the survival is inactive: 102%.

Turning to `CCC(CC)C(=O)Nc1nnc2n1CCS2`, the survival is inactive: 132%.

In the case of `CCOC(=O)c1cc2occc2n1CC(=O)N1CCCc2ccccc21`, the survival was inactive: 99%.

On to `COCC(C)NC(=O)c1ccc2c(c1)OCO2` (stereo not given), for which the survival is inactive: 106%.

As to `Cc1ccc(C(=O)N2CCC(c3c[nH]c4ccccc34)(c3c[nH]c4ccccc34)CC2)cc1`, the survival was inactive: 60%.

Take `Cn1nccc1C(=O)NCc1ccc2c(c1)CCN2C(=O)c1ccc(F)cc1`: the survival is inactive: 65%.

Consider `COc1cc(Cl)ccc1Nc1ncc(C(=O)N2CCN(c3ccccc3OC)CC2)c2ccccc12`, for which the survival was inactive: 77%.

Turning to `COc1ccc(OC)c(-c2cc(C(=O)Nc3cccc(Cl)c3C)no2)c1`, the survival is inactive: 26%.

For `COc1ccccc1Nc1cc(C(=O)NCCCN(C)c2ccccc2)c2ccccc2n1`, the survival was inactive: 89%.

Turning to `COc1cccc(CNC(=O)c2ccc(Cn3c(SCc4ccccc4)nc4cccnc43)cc2)c1`, the survival is inactive: 88%.

In the case of `CCC(=O)N1c2ccc(S(=O)(=O)NCc3cccc(OC)c3)cc2CC1C` (stereo not given), the survival was inactive: 66%.

On to `Cc1ccc(S(=O)(=O)c2nc(-c3ccco3)oc2SC(C)c2ccccc2)cc1` (stereo not given), for which the survival is inactive: 34%.

`O=C(CSc1nc(-c2ccccc2)nc2c1CCCC2)c1ccc(F)cc1`: the survival was inactive: 69%.

As for `Cc1nc2ccccc2n1CC(O)COc1ccc(C(=O)O)cc1` (stereo not given), the survival was inactive: 68%.

For the compound `Cc1ccc(NC(=O)Cn2cc(C#N)c3ccccc32)cc1`, the survival was inactive: 113%.

With `O=C(CN1CCC(NC(=O)c2ccccc2)CC1)NCc1ccccc1F`, the survival was inactive: 91%.

Take `COc1cc(NC(=O)CCc2c(C)nc3nc(-c4cc(OC)cc(OC)c4)nn3c2C)cc(OC)c1`: the survival is inactive: 93%.

Take `CCCCN(CC)CCNC(=O)c1cc2c(-c3ccc(Cl)cc3)nn(C)c2s1`: the survival is active: 5%.

For `CC1CCCN(S(=O)(=O)c2ccc(NC(=O)c3nc(SC(C)C)ncc3Cl)cc2)C1` (stereo not given), the survival is inactive: 90%.

With `CCn1c(C(=O)N2CCC(C(=O)NCCc3ccccc3)CC2)cc2sccc21`, the survival was inactive: 85%.

For `CCC(Sc1nnc(-c2ccc(OC)cc2)c(-c2ccc(OC)cc2)n1)C(=O)NC1CCCCC1` (stereo not given), the survival was inactive: 83%.

Turning to `OC(COc1cccc2ccccc12)CN1CCOCC1` (stereo not given), the survival was inactive: 110%.

For `Cc1ccc(-n2c3nc(=O)n(C)c(=O)c-3cc3c(Cl)cccc32)c(C)c1`, the survival is inactive: 83%.

For the compound `Cc1ccc(NS(=O)(=O)c2ccc(NC(=O)N3CCCC3)cc2)cc1C`, the survival is inactive: 83%.

Turning to `O=C1c2ccccc2C(=O)N1c1ccc(S(=O)(=O)N2CCOCC2)cc1`, the survival is inactive: 108%.

Take `COc1ccccc1/C=C/c1nc(C#N)c(N2CCCCCC2)o1`: the survival was inactive: 86%.

`O=C(C1CCCO1)N1CCc2ccccc21` (stereo not given): the survival was inactive: 125%.

In the case of `CCCCN(Cc1ccccc1)C(=O)c1oc(=O)c2ccccc2c1-c1ccc(C)cc1`, the survival was active: 0%.

With `COc1ccc(N2CC(NC(=O)c3ccc(S(=O)(=O)N4CCCC4)cc3)CC2=O)cc1` (stereo not given), the survival was inactive: 118%.

In the case of `COc1ccc(-n2nc(C(=O)N3CCN(c4ccccc4OC)CC3)c3c4ccccc4n(C)c3c2=O)cc1`, the survival was inactive: 80%.

For `CCOC(=O)c1ccc(NC(=O)C(CC)Sc2nc3ncccc3[nH]2)cc1` (stereo not given), the survival is inactive: 71%.

For the compound `COc1cccc(N2CC(NC(=O)/C=C\c3ccc4c(c3)OCO4)CC2=O)c1` (stereo not given), the survival was inactive: 73%.

Regarding `Cc1cc(C)nc(SCC(=O)C(C)(C)C)n1`, the survival is inactive: 94%.

In the case of `Cc1ccc(CNC(=O)c2ccc(CSCc3ccc(Cl)cc3)o2)cc1`, the survival was inactive: 85%.

`CCc1ccccc1NC(=O)CN1C(=O)CCc2cc(S(=O)(=O)N3CCCCC3)ccc21`: the survival is inactive: 87%.

For `CCCCNS(=O)(=O)c1ccc2nc(NC(=O)c3cccnc3)sc2c1`, the survival is inactive: 71%.

Take `O=C(NCc1cccc(F)c1)C1=Cc2cc(Br)ccc2OC1`: the survival was inactive: 77%.

Consider `Cc1ccc(-n2ccnc(NCc3ccccc3)c2=O)cc1C`, for which the survival is inactive: 72%.

Take `CCOc1ccccc1C(=O)Nc1c(NC)c2ccccc2oc1=O`: the survival was inactive: 76%.

On to `CC(C)OC(=O)CC12CN3CC(CC(=O)OC(C)C)(CN(C1)C(=O)c1ccccc1C3=O)C2=O`, for which the survival was inactive: 104%.

In the case of `O=C(Nc1cc(C(F)(F)F)ccc1Cl)c1cc2nc(-c3ccc4c(c3)OCO4)cc(C(F)(F)F)n2n1`, the survival was inactive: 74%.

As to `Cn1c(=O)oc2cc(S(=O)(=O)N3CCCC(C(=O)Nc4ccc(Br)cc4F)C3)ccc21` (stereo not given), the survival was inactive: 134%.

As for `COc1ccc(OCCCn2c(=O)oc3ccc(C)cc32)cc1`, the survival is active: 2%.

With `COc1ccc(N(CC(=O)NCc2ccc(F)cc2)S(=O)(=O)c2c(C)n[nH]c2C)cc1`, the survival was inactive: 86%.

For `CCOC(=O)c1cc2c(ccn2-c2ccc(F)cc2)n1CC(=O)NC1CCCCC1`, the survival is inactive: 112%.

Consider `O=C(CSc1nc2c(oc3ccccc32)c(=O)n1Cc1ccco1)Nc1cccc(Cl)c1`, for which the survival is inactive: 52%.

`Cc1cn(C)c(CC(=O)Nc2cccc(Cl)c2C)c1C(=O)O`: the survival was inactive: 124%.

Regarding `Cc1cc(C)cc(NC(=O)CN2C(=O)c3ccccc3Sc3ccc(C(=O)N4CCOCC4)cc32)c1`, the survival was inactive: 69%.

Take `COc1cc2c(cc1NS(=O)(=O)c1cccc(C#N)c1)n(C)c(=O)n2C`: the survival was inactive: 76%.

Take `Cc1ccc(C)c(Cn2nnc(C(=O)NCc3ccc(Cl)cc3Cl)c2N)c1`: the survival was inactive: 80%.

Consider `CCc1ccc(NC(=O)c2ccc(F)c(S(=O)(=O)N3CCC(C)CC3)c2)cc1`, for which the survival was inactive: 119%.

Turning to `Cc1cccc(C(=O)NCCc2sc(-c3ccccc3)nc2C)c1`, the survival was inactive: 71%.

Turning to `CCOC(=O)c1sc2ccccc2c1S(=O)(=O)Nc1cccc(C(F)(F)F)c1`, the survival was inactive: 45%.

Turning to `C=CCc1cccc2cc(C(=O)Nc3cccc(Cl)c3)c(=O)oc12`, the survival is inactive: 76%.

Turning to `Cc1coc2c1c(C)cc1oc(=O)cc(C)c12`, the survival is inactive: 88%.

As for `COc1ccc(CNn2cnnc2)c(O)c1`, the survival is inactive: 100%.

Take `Cc1oc(-c2cccc(Cl)c2)nc1CN1CCCC(C(=O)NCc2ccc(F)cc2)C1` (stereo not given): the survival is inactive: 64%.

With `CCCCN(C)C(=O)C(Cc1ccccc1)NS(=O)(=O)c1ccc2c(c1)c(=O)n(C)c(=O)n2C` (stereo not given), the survival is inactive: 127%.

Turning to `COc1ccc(-c2nnc(SCC(=O)Oc3c(C)cccc3C)o2)cc1OC`, the survival was inactive: 117%.

Consider `CC(C)OCCCNC(=O)c1ccc2c(=O)n(CCc3ccccc3)c(=O)[nH]c2c1`, for which the survival is inactive: 93%.

For `CN(C)C(=O)Cn1nc(-c2ccccc2)c2ccccc2c1=O`, the survival was inactive: 98%.

For the compound `CCC(C)NC(=O)c1ccc(-n2c(-c3ccccc3)cc3c2CCCC3)cc1` (stereo not given), the survival was inactive: 112%.

With `COC(=O)c1cc(NC(=O)Cn2nc(C)n3cccc3c2=O)cc(C(=O)OC)c1`, the survival was inactive: 91%.

Regarding `CCOC(=O)C1=C(CS(=O)(=O)c2ccc(Br)cc2)NC(=O)NC1c1ccccc1` (stereo not given), the survival is inactive: 85%.

Consider `Cc1ccccc1CNC(=O)c1ccc(-c2nc(CS(=O)(=O)c3ccccc3)c(C)o2)cc1`, for which the survival was inactive: 75%.

In the case of `CCc1cccc(C)c1NC(=O)c1cc(C)nc2c1c(C)nn2-c1cccc(Cl)c1C`, the survival was inactive: 78%.

On to `CC(=O)Oc1cn(C(C)=O)c2ccccc12`, for which the survival was inactive: 84%.

Regarding `COc1ccc(C)cc1NC(=O)CN(c1cc(C(F)(F)F)ccc1Cl)S(C)(=O)=O`, the survival was inactive: 76%.

Take `CC(Sc1nnc2c(n1)[nH]c1ccccc12)C(=O)NC(C)(C)C` (stereo not given): the survival is inactive: 108%.

As to `CC(=O)c1c(C)oc2ccc(N(C(=O)Oc3ccccc3)S(=O)(=O)c3ccc(C(C)(C)C)cc3)cc12`, the survival was inactive: 132%.

On to `O=C(COc1ccc(Cl)cc1Cl)NC1CCSC1=O` (stereo not given), for which the survival is inactive: 129%.

Consider `COc1cc(NC(=O)c2cc(Cl)c(OC)c(Cl)c2)ccc1NC(=O)c1cc2ccccc2o1`, for which the survival was inactive: 99%.

For `COc1ccccc1CNC(=O)CCn1c(=O)c2ccccc2n(CC(=O)Nc2ccc(C)cc2C)c1=O`, the survival was inactive: 91%.

As to `Cc1cc(OC(=O)c2cc(-c3ccc4c(c3)OCCO4)on2)ccc1Cl`, the survival is active: -6%.

`COc1ccc2c(c1)-c1nc(NC(=O)c3cc(Cl)ccc3OC)sc1CC2`: the survival is inactive: 74%.

As for `Cc1ccc(CN2CCCn3nc(C(=O)NCCc4ccc(Cl)cc4)cc3C2=O)cc1`, the survival is inactive: 73%.

Consider `CN1c2ccccc2-c2nc(SCC(=O)Nc3ccccc3C(F)(F)F)ncc2S1(=O)=O`, for which the survival is inactive: 69%.

As for `Cc1ccc(CSc2nc3ccc(NC(=O)C(C)C)cc3s2)cc1`, the survival was inactive: 97%.

With `CCc1nn2c(=O)c(S(=O)(=O)Nc3ccc(OC)c(Cl)c3)c(C)nc2s1`, the survival is inactive: 67%.

Turning to `O=C(NCC(c1cccnc1)N1CCN(Cc2ccccc2)CC1)C(=O)Nc1ccc(Cl)cc1` (stereo not given), the survival is inactive: 79%.

Regarding `COc1ccc(C(CC(=O)Nc2ccc(C)c(C)c2)N2Cc3ccccc3C2=O)cc1OC` (stereo not given), the survival was inactive: 66%.

`CCN(Cc1ccccc1)C(=O)Cn1c(=O)n(Cc2ccccc2)c(=O)c2c1c1cc(OC)ccc1n2C`: the survival was inactive: 64%.

With `Cc1ccc2c(=O)cc(CSc3ccccc3)[nH]c2c1C`, the survival is inactive: 94%.

As for `Cc1ccc(CSCC(=O)N2CCN(c3ccc(F)cc3)CC2)cc1`, the survival was inactive: 79%.

For `CC(C)c1ccc(S(=O)(=O)c2nnn3c2nc(NC2CCCC2)c2sccc23)cc1`, the survival is inactive: 88%.
